Assay results taken from PubChem BioAssay (Tox21).
“And” between values parts separate entries of the source, which are not always exact repeats. Identical values can stand only once. This list was built around the results that the source calls inconclusive (neither active nor inactive); the mix of calls is not that of the screen. Potencies beside an inconclusive call are fits to weak or partial responses and may not hold up. The source made the active and inactive calls. Calls follow the shape of the dose curve; as a rule, active = well fitted activation curve with a large enough effect in the signal ratio in the repeat runs (not every such curve was filed as active); inconclusive = weak or mixed curves; inactive = flat fitted curve, though single readings scatter; the % refers to the signal ratio.

Experiment: qHTS assay to identify small molecule agonists of the TGF-beta/Smad signaling pathway (AID 1346859)
Details: SBE-bla HEK293T, TGF-beta/Smad beta-lactamase reporter, 5 h; activation: at 76.8 µM (top of the series) unless noted
In short: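 After overnight seeding, SBE-bla HEK 293T cells are dosed with compounds in DMSO and kept 5 hr at 37 C, 5% CO2. LiveBLAzer-type FRET substrate is then applied for 2 hr at room temperature.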
% is scaled to controls: 0 for no effect and ±100 for the full control effect; potency is read from the fitted curve at half-maximal effect; tags tell the direction and shape of the fitted curve or compound fluorescence and quenching.

Row | SMILES | Potency | activation
1 | C=CC(=O)OCCCCO | inconclusive: 49 µM [rising, partial curve] | –
2 | Oc1cc(Cl)ccc1Cl | inactive | –
3 | CCSCc1ccccc1OC(=O)NC | – | inactive: -0.0519%
4 | CNC(=O)Oc1cccc2c1OC(C)(C)C2 | inactive | –
5 | Cc1ncc(CNC(=O)N(CCCl)N=O)c(N)n1 | – | inactive: -0.282% [at 35.3 µM]
6 | C=CCN=C=S | inactive | –
7 | Cc1c(Cl)c(=O)oc2cc(OP(=O)(OCCCl)OCCCl)ccc12 | – | inconclusive: 13.5% [at 35.3 µM]
8 | C[Si](Cn1cncn1)(c1ccc(F)cc1)c1ccc(F)cc1 | inconclusive: 3.89 µM [rising, partial curve] | –
9 | Nc1n[nH]c(N)n1 | – | inactive: 2.41%
10 | O=C(O)C(Cl)(Cl)Cl | inactive | –
11 | CC(C)(C)c1ccccc1O | inconclusive: 55.6 µM [rising, partial curve, poor fit] | –
12 | Cc1ccc(Cl)c(O)c1 | – | inactive: 2.23% [at 35.3 µM]
13 | Oc1cc(Cl)c(Cl)c(Cl)c1Cl | inconclusive: 60.2 µM [rising, partial curve, poor fit] | –
14 | Cc1ccc2c(C)cccc2c1 | – | inactive: 2.26%
15 | Nc1ccc(Cl)cc1C(=O)c1ccccc1 | – | inactive: -10.2%
16 | COC(=O)C(C)N(C(=O)Cc1ccccc1)c1c(C)cccc1C (centres undefined) | inconclusive: 38.9 µM [rising, partial curve] | –
17 | O=c1oc2ccccc2c(O)c1Cc1c(O)c2ccccc2oc1=O | – | inactive: -1.11% [at 35.3 µM]
18 | C[C@]12C/C(=C/O)C(=O)C[C@@H]1CC[C@@H]1[C@@H]2CC[C@@]2(C)[C@H]1CC[C@]2(C)O | inconclusive: 35 µM [rising, partial curve] and inconclusive: 21.3 µM [rising, partial curve] | –
19 | C=CC[C@]1(O)CC[C@H]2[C@@H]3CCC4=CC(=O)CCC4=C3C=C[C@@]21C | inconclusive: 19 µM [fluorescent, partial curve] | –
20 | S=C=Nc1ccccc1 | – | inactive: 3.99%
21 | O=C(NC(=O)c1c(F)cccc1F)Nc1cc(Cl)c(Oc2ncc(C(F)(F)F)cc2Cl)c(Cl)c1 | inconclusive: 1.87 µM [rising, full curve] | –
22 | CCS(=O)(=O)C(C)(C)S(=O)(=O)CC | inconclusive: 10.7 µM [activator] | –
23 | CC(=O)CCc1ccc2c(c1)OCO2 | – | inactive: 2.19%
24 | CC(C)=CC1C(C(=O)OCc2cccc(Oc3ccccc3)c2)C1(C)C (centres undefined) | inactive | –
